Source: PubChem BioAssay AID588342 (National Center for Advancing Translational Sciences (NCATS), 2011)
The campaign covered roughly 360,000 compounds. About 25,000 (6.9%) were called active. Inconclusive results, whose numbers are uncertain, are shown with a selection of clear calls. Calls follow the shape of the dose curve; as a rule, active = well fitted inhibition curve with a large enough effect; inconclusive = small, poorly fitted or top-dose-only effect; inactive = flat fitted curve, though single readings scatter. A potency beside an inconclusive call is a rough fit, not a confirmed value.

Target: Luciferin 4-monooxygenase (Photinus pyralis) (UniProt P08659)
UniProt P08659, sequence (P08659 whole entry, looked up): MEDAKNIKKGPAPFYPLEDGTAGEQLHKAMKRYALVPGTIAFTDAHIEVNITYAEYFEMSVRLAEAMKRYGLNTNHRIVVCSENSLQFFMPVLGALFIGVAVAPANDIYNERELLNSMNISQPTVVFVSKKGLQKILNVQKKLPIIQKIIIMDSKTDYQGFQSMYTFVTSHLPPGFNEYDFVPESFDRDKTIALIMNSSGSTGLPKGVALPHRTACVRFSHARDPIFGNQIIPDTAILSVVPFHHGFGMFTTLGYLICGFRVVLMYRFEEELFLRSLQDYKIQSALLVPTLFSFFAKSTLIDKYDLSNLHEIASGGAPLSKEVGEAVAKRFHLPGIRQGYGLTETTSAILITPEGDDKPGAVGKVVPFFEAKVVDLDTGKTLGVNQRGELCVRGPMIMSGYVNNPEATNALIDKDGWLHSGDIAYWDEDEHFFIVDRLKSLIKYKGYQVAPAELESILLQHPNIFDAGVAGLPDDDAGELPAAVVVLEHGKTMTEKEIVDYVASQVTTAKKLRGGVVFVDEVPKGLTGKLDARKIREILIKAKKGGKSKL
Assay: qHTS profiling assay for firefly luciferase inhibitor/activator using purifed enzyme and Km concentrations of substrates (counterscreen for miR-21 project); also: nearly all actives have a fitted effect of over 55% in size
Details: purified FLuc, luminescence inhibition; series mostly up to 57.5 µM
How it was run: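 Purified P. pyralis luciferase, 10 nM final, with Km-level 10 uM D-luciferin and 10 uM ATP in 50 mM Tris acetate pH 7.5, 10 mM Mg acetate, 0.01% Tween-20, 0.05% BSA; 6-point qHTS titration about 60 µM downward; luminescence read.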
Potency is read from the fitted curve at half-maximal effect; tags tell the direction and shape of the fitted curve.

Row | SMILES | Potency
1 | O=C(NNC(=S)NCc1ccccc1)c1cccc([N+](=O)[O-])c1 | inconclusive: 15.1 µM [inhibitor, partial curve, poor fit]
2 | CCn1nnnc1SCC(=O)N1CCCCC1 | inactive
3 | O=C1C(=O)N(c2nccs2)C(c2ccccc2F)/C1=C(\O)c1ccc2c(c1)OCCO2 (configuration not stated) | inconclusive: 19 µM [inhibitor, single point]
4 | O=C(O)c1cc(N/N=C/c2ccc(-c3ccccc3)cc2)ccc1Cl | active: 0.757 µM
5 | COc1ccc(C(=O)CSc2nc(-c3ccccn3)nc(C)c2Cl)cc1 | inactive
6 | S=C(c1ccc(-c2ccc(Cl)cc2Cl)o1)N1CCCCC1 | active: 4.78 µM
7 | CC(=O)NNC(=S)NC(=O)c1ccc(C)cc1 | inconclusive: 37.9 µM [inhibitor, single point]
8 | O=[N+]([O-])c1cccc(S(=O)(=O)N2CCN(S(=O)(=O)N3CCOCC3)CC2)c1 | inactive
9 | COc1ccc(C(=O)N=c2nc3ccccn3s2)cc1 | active: 0.0953 µM
10 | CN(C)CCCN(C(=O)c1cccs1)c1nc(-c2ccccc2)cs1 | inactive
11 | Cn1c(C(=O)NCc2ccccc2F)cc2oc3ccccc3c21 | inconclusive: 10.7 µM [inhibitor, partial curve]
12 | COc1ccc(C(=O)NNC(=O)c2cnccn2)cc1[N+](=O)[O-] | inactive
13 | CCN1CCN(c2cc3c(cc2F)c(=O)c(S(=O)(=O)c2ccc(OC)cc2)cn3CC)CC1 | inactive
14 | CCCNc1[nH]c(=O)n(C)c(=O)c1N=O | inactive
15 | Cc1c(C(=O)Nc2cccc(C(F)(F)F)c2)sc2nc3n(c(=O)c12)CCCC3 | inconclusive: 10.7 µM [inhibitor, partial curve]
16 | O=C(NC(=S)NC1CCN(Cc2ccccc2)CC1)c1ccc(F)cc1 | inactive
17 | CCOCCCNC(=O)c1cc(-c2ccc(Br)s2)nc2ccccc12 | inconclusive: 30.1 µM [inhibitor, partial curve, poor fit]
18 | Cc1cccc2c(C(=O)Nn3cnnc3)cc(-c3ccccc3Cl)nc12 | inconclusive: 37.9 µM [inhibitor, single point]
19 | O=C(CSc1ccccc1)Nc1ccccc1C(=O)O | active: 21.3 µM
20 | Cn1nc(C(F)(F)F)c(-c2ccc(Br)cc2)c1NC(=O)c1nccnc1C(=O)O | inactive
21 | Oc1ccc(Cl)cc1CNc1ccc(Br)cn1 | active: 19 µM
22 | COc1ccc(C(C(C(=O)c2ccco2)N2CCOCC2)N2CCOCC2)cc1 (configuration not stated) | active: 13.5 µM
23 | CC(C)OC(=O)c1ccc(COc2ccc3ccc(=O)oc3c2)o1 | inconclusive: 21.3 µM [inhibitor, partial curve]
24 | Oc1ccc(/C=C/c2ccc3ccccc3n2)cc1 | active: 0.135 µM
25 | CCCCN1C[C@H](C)[C@@H](CC(=O)NCc2ccccc2)C1=O | inactive
26 | COc1ccc(-c2nc(-c3ccncc3)no2)c(OC)c1 | active: 0.953 µM

Row | SMILES | Potency
27 | Cc1nn(-c2ccccc2)c(C)c1C(=O)OCC(=O)Nc1cccc(S(N)(=O)=O)c1 | inconclusive: 26.9 µM [inhibitor, single point]
28 | O=C(Nc1cccc(Br)c1)c1cc(S(=O)(=O)N2CCOCC2)cs1 | inactive
29 | COc1ccc(NC(=O)C(C)N2CCN(C)CC2)cc1 (configuration not stated) | inactive
30 | Cc1ccc(-c2cc(C(=O)N/N=C/c3c(C)nn(-c4ccccc4)c3C)n[nH]2)s1 | active: 10.7 µM
31 | Cc1csc(NC(=O)CCc2nc3ccccc3s2)n1 | inconclusive: 13.5 µM [inhibitor, partial curve, poor fit]
32 | Cc1ccnc(SCc2cn3c(C)cccc3n2)n1 | inconclusive: 23.9 µM [inhibitor, partial curve, poor fit]
33 | COc1ccc(N=CC2=C(O)CC(C)(C)CC2=O)cc1 | active: 19 µM
34 | Cc1ccc(-n2c(C)cc(/C=N/NC(=O)CC3(C)OCCO3)c2C)c(C)c1 | inconclusive: 23.9 µM [inhibitor, single point]
35 | COc1cccc(NC(=O)Nc2ccc(C)c(Cl)c2)c1 | active: 2.69 µM
36 | COc1cccc(NC(=O)CSc2nc3cc(OC)c(OC)cc3c3nc(-c4ccccc4)nn23)c1 | inactive
37 | CC(=O)Nc1ccc(NC(=O)c2nc(S(=O)(=O)Cc3cccc(C)c3)ncc2Cl)cc1 | inactive
38 | Cc1ccc(-c2nn(-c3ccccc3)cc2C(=O)NCCCN2CCCC2=O)cc1 | active: 21.3 µM
39 | COc1cc(OC)c(NC2(c3ccccc3)C(=O)c3ccccc3C2=O)cc1Cl | inactive
40 | CC(C)Oc1cccc(C(=O)Nc2ncn[nH]2)c1 | inconclusive: 16.9 µM [inhibitor, partial curve, poor fit]
41 | Nc1ccc(C(=O)Oc2ccc([N+](=O)[O-])cc2)c(O)c1 | active: 15.1 µM
42 | CCCCn1c(N)c(N(CC(C)C)C(=O)C2CCN(S(=O)(=O)c3ccc(C)c(C)c3)CC2)c(=O)[nH]c1=O | inactive
43 | COc1ccccc1CCNC(=O)C1CCN(C(=O)/C=C/c2ccccc2)CC1 | active: 21.3 µM
44 | O=C(c1ccc(CSc2nc3ccncc3n2Cc2ccc(F)cc2)cc1)N1CCCCCC1 | inconclusive: 23.9 µM [inhibitor, partial curve]
45 | Cc1ccc(-c2nc3c4ccccc4[nH]c(=O)n3n2)cc1 | inconclusive: 6.01 µM [inhibitor, full curve]
46 | CCOCCCNC(=O)c1ccc(-n2c(=S)[nH]c3ccccc3c2=O)cc1 | inactive
47 | Nn1c(SCc2ccccc2F)nnc1-c1ccncc1 | inconclusive: 37.9 µM [inhibitor, partial curve, poor fit]
48 | O=[N+]([O-])c1c(NCCO)cc(Sc2nc3ccccc3s2)c2nonc12 | inconclusive: 6.01 µM [inhibitor, partial curve, poor fit]
49 | COc1ccc2c(c1)O/C(=C\c1sccc1C)C2=O | active: 0.169 µM
50 | Cc1ccnc(NC(=O)/C=C/c2ccccc2Cl)c1 | active: 0.601 µM
51 | O=C1CC(c2cccc(O)c2)c2c(nc(SCc3ccccc3F)[nH]c2=O)N1 (configuration not stated) | inconclusive: 26.9 µM [inhibitor, partial curve, poor fit]
52 | O=C(NCCC1=CCCCC1)c1ccc(Br)o1 | inconclusive: 23.9 µM [inhibitor, single point]
